Out of some 310,000 compounds screened, about 2,200 (0.71%) showed an effect of 50% or more. The effect is printed as a negative number. Some of the results follow.
Target: human ether-à-go-go-related gene (hERG) potassium channel (human, UniProt Q12809)
Experiment: primary screen, population patch clamp on CHO cells stably expressing hERG

Sequence of human ether-à-go-go-related gene (hERG) potassium channel (Q12809 whole entry, looked up): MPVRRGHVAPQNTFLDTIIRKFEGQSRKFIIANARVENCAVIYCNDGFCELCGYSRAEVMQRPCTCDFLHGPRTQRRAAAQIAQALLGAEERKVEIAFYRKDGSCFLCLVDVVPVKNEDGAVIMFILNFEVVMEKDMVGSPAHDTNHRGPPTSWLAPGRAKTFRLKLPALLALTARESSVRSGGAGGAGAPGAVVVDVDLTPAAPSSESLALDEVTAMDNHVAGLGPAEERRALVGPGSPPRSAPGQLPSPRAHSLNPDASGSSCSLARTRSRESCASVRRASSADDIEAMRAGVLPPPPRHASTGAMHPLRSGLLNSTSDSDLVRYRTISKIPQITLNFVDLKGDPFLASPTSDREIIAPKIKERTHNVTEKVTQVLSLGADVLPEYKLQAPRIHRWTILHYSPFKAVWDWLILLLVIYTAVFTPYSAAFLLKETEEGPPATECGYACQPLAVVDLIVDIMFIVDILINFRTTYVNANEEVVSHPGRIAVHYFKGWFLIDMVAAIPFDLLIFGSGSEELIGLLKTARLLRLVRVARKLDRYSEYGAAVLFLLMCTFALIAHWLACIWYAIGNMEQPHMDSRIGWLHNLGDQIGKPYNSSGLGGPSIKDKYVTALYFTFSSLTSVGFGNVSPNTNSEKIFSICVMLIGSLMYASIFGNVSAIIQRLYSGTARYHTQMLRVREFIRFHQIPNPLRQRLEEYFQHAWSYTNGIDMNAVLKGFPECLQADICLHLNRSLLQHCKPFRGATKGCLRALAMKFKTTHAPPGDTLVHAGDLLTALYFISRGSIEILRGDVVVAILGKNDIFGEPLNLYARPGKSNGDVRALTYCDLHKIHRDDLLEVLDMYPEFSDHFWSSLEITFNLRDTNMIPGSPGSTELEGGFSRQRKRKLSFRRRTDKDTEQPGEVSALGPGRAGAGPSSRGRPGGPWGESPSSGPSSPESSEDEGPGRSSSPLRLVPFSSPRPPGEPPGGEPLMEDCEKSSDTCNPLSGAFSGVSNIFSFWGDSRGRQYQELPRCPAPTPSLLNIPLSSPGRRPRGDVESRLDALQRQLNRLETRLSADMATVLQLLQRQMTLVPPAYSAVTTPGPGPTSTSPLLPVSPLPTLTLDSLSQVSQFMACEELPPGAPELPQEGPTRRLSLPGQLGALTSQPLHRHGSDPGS

| Compound | hERG current change (%, negative = inhibition) at 1uM [%] |
| --- | --- |
| COc1ccc2[nH]c(=O)c(CN(C(=O)c3ccco3)C3CCCCC3)cc2c1 | 9.93 |
| CCCCc1ccc(NC(=O)CC(C)C)cc1 | 9.98 |
| Cc1cc2c(cc1C)CSC(c1ccccc1O)SC2 | 3.04 |
| CCOc1cc(C)c(C(C)C)cc1S(=O)(=O)n1ccc(C)n1 | -9.63 |
| COc1ccc(C(=O)/C=C2/Sc3cc4c(cc3N2C)OCO4)cc1 | 15.9 |
| Cl.OC1(c2ccc3ccccc3c2)CCN(Cc2ccccc2)C1 (stereo not drawn) | -15.7 |
| COc1cccc(/C=C/C(=O)OCC(=O)N2CCN(c3ccccc3)CC2)c1 | 3.99 |
| O=C(COC(=O)C12CC3CC(CC(C3)C1)C2)N1CCN(S(=O)(=O)c2ccccc2)CC1 | 11.8 |
| Cc1cccc(NC(=O)c2oc3ccc(S(=O)(=O)N4CCOCC4)cc3c2C)c1C | 3.13 |
| Br.N=c1ccn(CC(=O)c2ccc(-c3ccccc3)cc2)cc1 | -1.45 |
| COc1ccc(C(=O)N/N=C/c2ccc(OC)c(CSc3ccccn3)c2)cc1 | 3.5 |
| COc1ccc(-c2cc(C(=O)Nc3cc(C)nn3-c3ccccc3)no2)cc1OC | 8.63 |
| Cc1cnc(C(=O)OCC(=O)NC(=O)NC(C)C)cn1 | 12 |
| O=C(N/N=C/c1cc(Cl)ccc1O)c1ccc(Br)cc1 | 18.2 |
| COc1ccc(C(=O)NNC(=O)CN2CCN(c3nc(-c4ccccc4)cs3)CC2)cc1 | 4.21 |
| COc1ccccc1[As](=O)(O)CC(O)COc1ccc(Cl)cc1Cl (stereo not drawn) | -1.61 |
| CN(C)c1ccc(N=C/C=C2\N(C)c3ccccc3C2(C)C)cc1 | -84.7 |
| CCC1=Nc2cc(C(=O)NCCN3CCOCC3)ccc2Sc2ccc(Br)cc21 | 13.6 |
| c1ccc(-n2c(-c3cccs3)nc3nc4ccccc4nc32)cc1 | 6.03 |
| CN(CC(=O)NCc1ccc(Cl)cc1)S(=O)(=O)c1cccs1 | 8.22 |
| COc1cc(CC(=O)Nc2ccccc2N2CCCCC2)cc(OC)c1OC | 10.6 |
| O=C(O)C(=O)O.O=C(c1cccc(Cl)c1)N1CCN(C2CCCCC2)CC1 | -14.6 |
| COc1ccc2[nH]c3c(=O)n4c(nc3c2c1)SCCC4 | 3.3 |
| Cc1cc(C)cc(NC(=O)CCc2ccc(C)o2)c1 | -5.53 |
| CN1C[C@H](C(=O)N[C@]2(C)O[C@@]3(O)[C@@H]4CCCN4C(=O)[C@H](Cc4ccccc4)N3C2=O)CC2c3cccc4[nH]cc(c34)C[C@H]21.O=C(O)C(O)C(O)C(=O)O (stereo partly drawn) | 12.3 |
| NNC(=O)c1[nH]c2ccccc2c1-c1ccccc1 | 21.8 |
| Cc1c(Cl)cccc1NC(=O)N1CCCN(c2nc(-c3ccccc3)ns2)CC1 | 14.4 |

| Compound | hERG current change (%, negative = inhibition) at 1uM [%] |
| --- | --- |
| CC1=NN(C(N)=S)C(=O)C1N=Nc1ccc(C)cc1C (stereo not drawn) | -4.82 |
| COc1ccc(CCNC(=O)C2=CC=CN3CCS(=O)(=O)N=C23)cc1 | -1.47 |
| CN(Cc1cccc(F)c1)C(=O)c1ccc(S(=O)(=O)N2CCOCC2)cc1 | 9.45 |
| CCc1noc(C)c1C(=O)N1CCN(S(=O)(=O)c2ccccc2C(F)(F)F)CC1 | 14.1 |
| Cc1cccc(C)c1NC(=O)CCN1C(=O)C2C3CCC(C3)C2C1=O (stereo not drawn) | 3.55 |
| Cc1ccc(S(=O)(=O)N2CCN(CC(=O)N/N=C/c3ccccc3OCC(=O)O)CC2)cc1 | 11.9 |
| CCCS(=O)(=O)n1nc(-c2ccc(OC)cc2OC)cc1N | -0.602 |
| COC(=O)CSc1nsc(SCC(=O)OC)c1C#N | 11.3 |
| COc1ccc(NC(=O)Cc2ccc(-c3ccccc3)cc2)cn1 | -0.834 |
| CC(=O)c1cccc(N(CC(=O)N2CCOCC2)S(C)(=O)=O)c1 | 9.93 |
| C=CCn1c(Cc2csc(N)n2)nnc1SCc1ccc(C(=O)OC)cc1 | 1.97 |
| C#Cc1ccc([C@@H]2C=C(C(=O)NCc3nc4ccccc4[nH]3)O[C@H](OCC)[C@H]2CCCO)cc1 | -3.64 |
| CCOC(=O)c1c(NC(=O)CCS(=O)(=O)c2ccccc2)sc2c1CC(C)(C)NC2(C)C | -14.1 |
| CC1=C(C(=O)O)N2C(=O)C(NC(=O)c3ccc(F)cc3)C2SC1 (stereo not drawn) | 0.0849 |
| CCNC(C(=O)c1c[nH]c2c(CC)cccc12)c1ccccc1 (stereo not drawn) | 20.3 |
| Cc1nc(-n2ncc(C#N)c2N)c2c3c(sc2n1)CCC3 | 1.47 |
| Cc1nc2ccc(S(=O)(=O)NCC(=O)N3CCCC(C)C3)cc2s1 (stereo not drawn) | 3.54 |
| O=C1C2C(C(=O)N1/N=C/c1ccc(N3CCCCC3)o1)C1C=CC2C12CC2 (stereo not drawn) | 1.2 |
| COc1ccc(-c2c(C#N)c(SCC(=O)Nc3ccccc3)nc3c2CCCC3)cc1 | 17.6 |
| Cc1cccn2c(/C=N/OCc3cccc(F)c3)c(-c3ccc(Cl)cc3)nc12 | 11.1 |
| CCOP(=O)(c1ccc(N(C)C)cc1)C(O)c1ccc(Cl)cc1 (stereo not drawn) | 3.39 |
| CC1(c2nnc(-c3ccc(Cl)cc3)o2)CC(c2cccnc2)=NO1 (stereo not drawn) | -5.85 |
| C[C@@H]1NS(=O)(=O)[C@H]2C[C@@H]3C=C[C@]2(O3)[C@H]1OC(=O)Nc1ccc(C(F)(F)F)cc1[N+](=O)[O-] | 17.1 |
| CCCCn1c(N)c(N(CCOC)C(=O)COC(=O)CSc2cc(C)c3ccccc3n2)c(=O)[nH]c1=O | 5.83 |
| Cc1ccc(C)c(CN2CCNC2=O)c1 | -3.95 |
| COc1cc(/C=C2\N=C(c3ccccc3)OC2=O)ccc1OC(C)=O | 16.1 |
| CCOc1ccc(C(=O)NCC(=O)OCc2c(F)cccc2Cl)cc1OCC | 2.51 |

From PMC4336329 (PLoS ONE, 2015)
